Article PMC4336329 (PLoS ONE, 2015)
The whole screen tested about 310,000 compounds, of which about 2,200 (0.71%) showed an effect of 50% or more. Effects have a minus sign here. The list shows a part of the results.

Target: human ether-à-go-go-related gene (hERG) potassium channel (human, UniProt Q12809)
Assay: primary screen, population patch clamp on CHO cells stably expressing hERG

Sequence of human ether-à-go-go-related gene (hERG) potassium channel (Q12809 whole entry, looked up): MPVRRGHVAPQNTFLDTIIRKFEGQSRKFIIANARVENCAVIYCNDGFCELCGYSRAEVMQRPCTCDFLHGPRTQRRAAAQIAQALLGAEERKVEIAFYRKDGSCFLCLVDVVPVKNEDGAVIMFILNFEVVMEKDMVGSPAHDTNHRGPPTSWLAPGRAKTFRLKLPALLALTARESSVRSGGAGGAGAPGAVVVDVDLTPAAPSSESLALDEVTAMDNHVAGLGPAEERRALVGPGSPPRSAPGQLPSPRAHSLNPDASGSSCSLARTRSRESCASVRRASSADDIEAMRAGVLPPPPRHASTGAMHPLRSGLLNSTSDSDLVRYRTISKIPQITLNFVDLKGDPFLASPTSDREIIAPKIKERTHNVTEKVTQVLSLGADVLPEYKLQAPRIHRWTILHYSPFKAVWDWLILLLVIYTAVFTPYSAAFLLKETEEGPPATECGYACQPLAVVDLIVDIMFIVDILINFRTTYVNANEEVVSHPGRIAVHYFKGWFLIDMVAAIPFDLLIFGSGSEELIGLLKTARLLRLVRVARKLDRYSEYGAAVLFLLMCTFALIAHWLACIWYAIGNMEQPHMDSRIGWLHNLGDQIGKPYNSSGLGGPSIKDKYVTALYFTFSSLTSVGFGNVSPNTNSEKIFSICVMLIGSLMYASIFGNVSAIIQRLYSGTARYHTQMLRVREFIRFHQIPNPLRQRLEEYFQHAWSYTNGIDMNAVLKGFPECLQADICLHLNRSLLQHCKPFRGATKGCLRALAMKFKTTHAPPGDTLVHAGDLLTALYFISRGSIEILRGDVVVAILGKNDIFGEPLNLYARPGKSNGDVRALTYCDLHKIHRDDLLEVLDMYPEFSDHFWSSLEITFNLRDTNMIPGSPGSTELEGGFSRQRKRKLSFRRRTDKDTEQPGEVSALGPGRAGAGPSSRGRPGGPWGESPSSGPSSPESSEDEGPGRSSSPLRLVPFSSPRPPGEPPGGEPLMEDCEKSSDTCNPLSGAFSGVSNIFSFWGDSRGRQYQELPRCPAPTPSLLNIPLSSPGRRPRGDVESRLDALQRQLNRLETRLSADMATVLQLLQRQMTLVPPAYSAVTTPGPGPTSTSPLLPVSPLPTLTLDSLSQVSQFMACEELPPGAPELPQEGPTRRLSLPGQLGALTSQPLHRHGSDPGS

SMILES	hERG current change (%, negative = inhibition) at 1uM
CCOC(=O)c1cc2c(ccc3ccccc32)oc1=O	-7.25%
Cc1ccc(C)c(Cn2nnc3c(=O)[nH]c(C4CCCN(S(=O)(=O)Cc5ccccc5)C4)nc32)c1 (stereo not drawn)	11.5%
CCn1nnnc1SCC(=O)c1ccc(NC(C)=O)cc1	7.74%
O=C(CSc1nnnn1-c1cccc2ccccc12)Nc1ccc(C(=O)O)cc1	6.44%
Cc1cc(NC(=O)C2CC=CCC2C(=O)O)ccc1NC(=O)c1ccccc1 (stereo not drawn)	10.1%
O=C(Cn1c(=O)c(=O)n(Cc2ccccc2)c2ccc(Cl)cc21)NCC1CCCO1 (stereo not drawn)	16.1%
COc1ccc(OC)c(NC(=O)CSC2=C(C#N)C(c3ccco3)C3=C(CCCC3=O)N2)c1 (stereo not drawn)	10.1%
CC1(C)CC(NCc2ccccc2)CCO1.Cl (stereo not drawn)	1.34%
O=C(O)c1ccccc1C(=O)NCc1cccnc1	-1.84%
COc1ccc(NC(=O)c2ccccc2NC(=O)c2cccs2)cc1	20.3%
CCCC(C(=O)O)N1C(=O)/C(=C2\C(=O)N(C)c3ccccc32)SC1=S (stereo not drawn)	-1.37%
COCCCNC(=O)CN(CCc1ccccc1)S(=O)(=O)c1ccccc1	4.7%
CCn1c(SCC(=O)N2CCCCCC2)nc2ccccc2c1=O	2.02%
CCCCN(C(=S)SC)C1CCS(=O)(=O)C1 (stereo not drawn)	-7.33%
CC1CCCN(C(=O)COC(=O)C2CCN(S(=O)(=O)c3ccc(Cl)c(C(F)(F)F)c3)CC2)C1 (stereo not drawn)	6.22%
COc1cccc(C(=O)Nc2c[nH]c(=O)[nH]c2=O)c1	11.2%
CC1CCCN(S(=O)(=O)c2ccc(NC(=O)C3CCN(C(=O)c4ccco4)CC3)cc2)C1 (stereo not drawn)	9.59%
CCN(CC)CC(=O)Nc1ccc(/C(C)=N/NC2=NCCN2)cc1	15.5%
CC(=O)c1c(C)n(C)c2ccc(O)cc12	15.4%

SMILES	hERG current change (%, negative = inhibition) at 1uM
CC(C)c1ccc(NC(=O)NC2(C(=O)NCc3cccnc3)CCCCC2)cc1	11%
CCCNC(=O)C/C(C)=N/NC(=O)C(=O)Nc1ccccn1	14.8%
Cc1cccn2cc(CNS(=O)(=O)c3cccc(F)c3)nc12	12.1%
CCOC(=O)c1sc2nc(SCC#N)n(CCCN3CCCC3=O)c(=O)c2c1C	-34%
O=C(C1CCCN(S(=O)(=O)c2cccc3cccnc23)C1)N1CCN(c2ccccc2F)CC1 (stereo not drawn)	-27.5%
CC12CCC(=O)N1C(C(=O)NCCN1C(=O)S/C(=C\c3ccccc3Cl)C1=O)CS2 (stereo not drawn)	-0.743%
N#Cc1ccc(-c2ccc(F)cc2)nc1SCC(=O)Nc1sc2c(c1C#N)CCC2	7.89%
CC(C)C(=O)Nc1ccc2c(c1)nc(CCN1CCN(C)CC1)n2C	0.191%
CCn1cc(C2=NC(CC(C)C)CO2)c2ccccc21 (stereo not drawn)	0.691%
Cc1cc(C)nc(NS(=O)(=O)c2ccc(N/C=C\C(=O)c3cccs3)cc2)n1	15.4%
Cc1cc(=O)oc2cc(OCC(=O)NCC3CCCO3)ccc12 (stereo not drawn)	2.53%
O=C1CSC(=S)N1/N=C/c1ccc(O)c(O)c1O	5.89%
NS(=O)(=O)c1ccc(NNC(=O)c2sccc2Cl)cc1	1.99%
CCN(CC)C(C)C(=O)NCC1(c2ccccc2)CCOCC1.Cl (stereo not drawn)	3.42%
Clc1ccc(Cn2nnc(-c3ccc(CN4CCOCC4)cc3)n2)cc1	7.6%
CC(C)n1c(SCc2ccccc2F)nc2c1c(=O)n(C)c(=O)n2C	1.31%
COc1cc(/C=C2\C(=O)N(C)C(=S)N2C)ccc1O	11.2%
O=[N+]([O-])c1ccc(Cl)c(CN2CCSCC2)c1	15.1%
COC(=O)c1ccc2c(c1)NC(=O)C(N1CCCCC1)S2 (stereo not drawn)	-0.836%

SMILES	hERG current change (%, negative = inhibition) at 1uM
CCC(C)(C)n1nnnc1C(c1ccc(O)c(OC)c1)N1CCN(c2nc3ccccc3s2)CC1 (stereo not drawn)	0.214%
CC1CN(C(=O)CS(=O)(=O)Cc2ccc(Cl)cc2)CC(C)O1 (stereo not drawn)	18.6%
Cc1ccc(CN2CC(C(=O)Nc3ccncc3)CC2=O)cc1 (stereo not drawn)	8.88%
CCOC(=O)N1CCN(CC(O)COc2ccc(C)c(C)c2)CC1.Cl (stereo not drawn)	12.4%
CN(C)S(=O)(=O)c1ccc(C(=O)Nc2cccc(C(=O)O)c2)cc1	4.33%
CCOc1ccc(CCNC(=O)C2CCCN(c3nn4c(=O)cc(C)nc4s3)C2)cc1 (stereo not drawn)	-4.66%
Cc1cc2c(N=NC(=O)C3CC3c3ccccc3)c(O)[nH]c2cc1Br (stereo not drawn)	3.77%
CN(C)C(CNC(=O)c1ccc(C(F)(F)F)cc1)c1ccco1 (stereo not drawn)	15.2%
CC1(C)Cc2c(C#N)c(NCC3CCCO3)nc(-c3ccco3)c2CO1 (stereo not drawn)	16.4%
Cc1nc(Nc2ccc(S(N)(=O)=O)cc2)sc1-c1ccccc1	21.6%
CCc1cccc(C)c1NC(=S)N(CCN(C)C)Cc1cccs1	-3.85%
Br.CNCCc1nc(N)n[nH]1	9.54%
O=C(COC(=O)c1cc(-c2cccc3ccccc23)nc2ccccc12)NC1CCS(=O)(=O)C1 (stereo not drawn)	5.94%
Cc1cc(N)n2nc(C)c(-c3ccccc3)c2n1	3.66%
COc1ccc(NC(=O)CCNC(=O)C2CCN(S(=O)(=O)c3ccc(OC)cc3)CC2)cc1	15.1%
Cc1ccc(/C=C/C2=NN(C)C(=O)CC2)cc1	8.49%
COc1ccc(/C=N/n2cnc3c([nH]c4ccc(F)cc43)c2=O)cc1CSc1ccccn1	13.4%
CCP(=O)(CC)C(C)(C)CP(=O)(c1ccccc1)c1ccccc1	1.89%
CCOC(=O)C1(C)NC(c2cccs2)C2C(=O)N(c3ccc(C)cc3)C(=O)C21 (stereo not drawn)	21.8%
